Experiment: soluble fraction after stress (log2 fold change); higher = more stays soluble; pooled small domains, quantitative proteomics
Details: stress: 75 degC
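Further: 20 min heating vs room temperature control held 20 min.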

Sequence | soluble fraction (log2)
HMADYYSVLGVERDATEEEIKRAYRKMSRKYHPDLAGPQFEEKFKEVNTAYEVLSDPEKRRMFDMGVDPN | 0.245
HMDQVDDEELLDLVELEVRELLSAYEFPGDDIPIIKGSALAALEGGDEATGKNAILELMKAVDDYVPQPE | -0.168
HMGIYRHFKGGLYEVVGTAKHSETEEELIVYRALYGDYGLWARPAAMFTETVEIDGEPLPRFSLI | -0.313
HMKAAYITIHDKIKDDIDLGIWKIGQRLPSERDLADEFGVSRMTLRQAITLLVEEGVLTRKVGSGTYVAS | -3.44
HMKYKDYYAVLGVPRDADLDQIKKAYRKLARQFHPDVSKEPNAEAQFKEAGEAYATLKDAEKRAAYDQLG | 0.341
HMNDDYYAILGVSRDADQSEIKKAYRKKARETHPDYGGDEEAFKAVSVAYETLSDPEKRRMYDIGGPDAAR | 0.169
HMPLHDIGKVGIPDHILLKPGKLTPAEWEVMKTHARLGAAAIEQAEREATRPVEFLVLAKEIAHHHHER | 0.811
HMPREEGIVKWFNRTKGFGFIIRENGDEIFVHHRSVSAHGGQRANLSDGQRVTFTVVERSKGWQAEDVDP | -2.08
HMQSHRFQRLQNDLANRIAQTPPSERLPSEPQLAQELGVSRATLREAMRAFEAQGLIRRKQGAGTFVVG | 0.06
HMQVDDAELIDLVEMEIRELLTSYEFPGDTIPIVKGSALAALEGRDDEIGKNSILELMKAVDESIPQPT | 0.205
HMSDYYSVLGVSRDATGEEIKRAYRKLARELHPDVNPDPATNEKFKEVTAAYEVLSDPSKRQMYDLGGDPR | -0.108
HMVDYYEVLGVRVDASDSEVKRAYRRLIVENHPDKLIAQGLPQEFIDLANEKMGAINSAYDMIKKERRI | -0.521

Reference: the domain aggregation screens of Martell et al. (2025)
